Results from patent US11618753B2 (priority 2018, dated 2023).

These compounds were tested on MLKL phosphorylation, HT29-L23 human colorectal adenocarcinoma cells (assay: cells). Conditions: read-out: pMLKL HCS Cell Assay (IC50, uM).
Work on `CC(C)CC(=O)N1C[C@H](F)[C@H](NC(=O)c2cccc(-c3cc(CN4CC(F)(F)C4)c4c(N)ncnn34)c2)C1` [Example 1165, 3-{4-amino-5-[(3,3-difluoroazetidin-1-yl)methyl]pyrrolo[2,1-f][1,2,4]triazin-7-yl}-N-[(3R,4S)-4-fluoro-1-(3-methylbutanoyl)pyrrolidin-3-yl]benzamide] yielded an IC50 of 0.00065 µM. Work on `Nc1ncnn2c(-c3cc(C(=O)N[C@@H]4CN(C(=O)C5CCC(F)(F)C5)C[C@@H]4F)c(Cl)cc3F)cc(C(F)(F)F)c12` (stereo partly drawn) [Example 410, 5-[4-amino-5-(trifluoromethyl)pyrrolo[2,1-f][1,2,4]triazin-7-yl]-2-chloro-N-[(3R,4S)-1-(3,3-difluorocyclopentanecarbonyl)-4-fluoropyrrolidin-3-yl]-4-fluorobenzamide] yielded an IC50 of 0.0063 µM. `Nc1ncnn2c(-c3cc(C(=O)N[C@@H]4CN(C(=O)C5CCC(F)(F)CC5)C[C@@H]4F)c(Cl)cc3F)cc(C(F)(F)F)c12` [Example 407, 5-[4-amino-5-(trifluoromethyl)pyrrolo[2,1-f][1,2,4]triazin-7-yl]-2-chloro-N-[(3R,4S)-1-(4,4-difluorocyclohexanecarbonyl)-4-fluoropyrrolidin-3-yl]-4-fluorobenzamide] showed an IC50 of 0.015 µM. In the case of `Nc1ncnn2c(-c3cccc(C(=O)Nc4cnn(CC5CC5)c4)c3)cc(C(F)(F)F)c12` [Example 75, 3-[4-amino-5-(trifluoromethyl)pyrrolo[2,1-f][1,2,4]triazin-7-yl]-N-[1-(cyclopropylmethyl)-1H-pyrazol-4-yl]benzamide], the IC50 is reported as 0.081 µM. `COc1ncc(-c2cc(C(=O)N3CC(F)(F)C3)c3c(N)ncnn23)cc1C(=O)N[C@@H]1CN(C(=O)[C@@](C)(O)C(F)(F)F)C[C@@H]1F` [Example 1349, 5-[4-amino-5-(3,3-difluoroazetidine-1-carbonyl)pyrrolo[2,1-f][1,2,4]triazin-7-yl]-N-[(3R,4S)-4-fluoro-1-[(2R)-3,3,3-trifluoro-2-hydroxy-2-methylpropanoyl]pyrrolidin-3-yl]-2-methoxypyridine-3-carboxamide] showed an IC50 of 0.041 µM. With `Cc1ncc(-c2cc(C(F)(F)F)c3c(N)ncnn23)cc1C(=O)NCCN1CCOC(c2ccccc2)C1` (stereo not drawn) [Example 1720, 5-(4-amino-5-(trifluoromethyl)pyrrolo[2,1-f][1,2,4]triazin-7-yl)-2-methyl-N-(2-(2-phenylmorpholino)ethyl)nicotinamide] the IC50 was 0.217 µM. For `COc1ncc(-c2cc(C(F)(F)F)c3c(N)ncnn23)cc1C(=O)N[C@@H]1CN(C2CCc3c(F)cccc32)C[C@@H]1F` (mixture of isomers) [Example 1355, 5-[4-amino-5-(trifluoromethyl)-pyrrolo[2,1-f][1,2,4]triazin-7-yl]-N-[(3R,4S)-4-fluoro-1-(4-fluoro-2,3-dihydro-1H-inden-1-yl)pyrrolidin-3-yl]-2-methoxypyridine-3-carbox-amide], the IC50 was 0.028 µM. Compound `COc1ncc(-c2c(F)cc3c(N)ncnn23)cc1C(=O)N[C@@H]1CN(C(=O)c2ccc(F)cc2)C[C@@H]1F` [Example 512, 5-{4-amino-6-fluoropyrrolo[2,1-f][1,2,4]triazin-7-yl}-N-[(3R,4S)-4-fluoro-1-(4-fluorobenzoyl)pyrrolidin-3-yl]-2-methoxypyridine-3-carboxamide] has an IC50 of 0.097 µM. `Nc1ncnn2c(-c3cc(F)cc(C(=O)N[C@@H]4CN(C(=O)CC(F)(F)F)C[C@@H]4F)c3)cc(C(F)(F)F)c12` [Example 603, 3-[4-amino-5-(trifluoromethyl)pyrrolo[2,1-f][1,2,4]triazin-7-yl]-5-fluoro-N-[(3R,4S)-4-fluoro-1-(3,3,3-trifluoropropanoyl)pyrrolidin-3-yl]benzamide] gave an IC50 of 0.095 µM. In the case of `CNc1ccc(-c2cc(C(F)(F)F)c3c(N)ncnn23)cc1C(=O)N[C@@H]1CN(C(=O)[C@@](C)(O)C(F)(F)F)C[C@@H]1F` [Example 1136, 5-[4-amino-5-(trifluoromethyl)pyrrolo[2,1-f][1,2,4]triazin-7-yl]-N-[(3R,4S)-4-fluoro-1-[(2R)-3,3,3-trifluoro-2-hydroxy-2-methylpropanoyl]pyrrolidin-3-yl]-2-(methylamino)benzamide], the IC50 is reported as 0.015 µM. With `Cc1ncc(-c2cc(C(F)(F)F)c3c(N)ncnn23)cc1C(=O)Nc1cnn(Cc2ccccc2)c1` [Example 166, 5-[4-amino-5-(trifluoromethyl)pyrrolo[2,1-f][1,2,4]triazin-7-yl]-N-(1-benzyl-1H-pyrazol-4-yl)-2-methylpyridine-3-carboxamide] the IC50 was 0.00085 µM. Work on `COc1ncc(-c2cc(CN3CCC(F)(F)CC3)c3c(N)ncnn23)cc1C(=O)N[C@@H]1CN(C(=O)OCC(C)(C)C)C[C@@H]1F` [Example 1514, 2,2-dimethylpropyl (3R,4S)-3-(5-{4-amino-5-[(4,4-difluoropiperidin-1-yl)methyl]pyrrolo[2,1-f][1,2,4]triazin-7-yl}-2-methoxypyridine-3-amido)-4-fluoropyrrolidine-1-carboxylate] yielded an IC50 of 0.0048 µM. `C=CCOC(=O)N1C[C@H](F)[C@H](NC(=O)c2cc(-c3cc(C(F)(F)F)c4c(N)ncnn34)cnc2OC)C1` [Example 1426, prop-2-en-1-yl (3R,4S)-3-{5-[4-amino-5-(trifluoromethyl)pyrrolo[2,1-f][1,2,4]triazin-7-yl]-2-methoxypyridine-3-amido}-4-fluoropyrrolidine-1-carboxylate] gave an IC50 of 0.011 µM. In the case of `CC(O)(CC(=O)N1C[C@H](F)[C@H](NC(=O)c2cc(-c3cc(CN4CCC(C(F)(F)F)CC4)c4c(N)ncnn34)ccc2Cl)C1)C(F)(F)F` (stereo partly drawn) [Example 1153, 5-(4-amino-5-{[4-(trifluoromethyl)piperidin-1-yl]methyl}pyrrolo[2,1-f][1,2,4]triazin-7-yl)-2-chloro-N-[(3R,4S)-4-fluoro-1-(4,4,4-trifluoro-3-hydroxy-3-methylbutanoyl)pyrrolidin-3-yl]benzamide], the IC50 is reported as 0.0028 µM. For `COc1ccc(-c2cc(C(F)(F)F)c3c(N)ncnn23)cc1C(=O)N[C@@H]1CN(C(=O)CC(C)(O)C(F)(F)F)C[C@@H]1F` (stereo partly drawn) [Example 1130, 5-[4-amino-5-(trifluoromethyl)pyrrolo[2,1-f][1,2,4]triazin-7-yl]-N-[(3R,4S)-4-fluoro-1-(4,4,4-trifluoro-3-hydroxy-3-methylbutanoyl)pyrrolidin-3-yl]-2-methoxybenzamide], the IC50 was 0.015 µM. For `COc1ncc(-c2cc(C(F)(F)F)c3c(N)ncnn23)cc1C(=O)N[C@@H]1CN(S(=O)(=O)c2ccc(C)cc2)C[C@@H]1F` [Example 1478, 5-[4-amino-5-(trifluoromethyl)pyrrolo[2,1-f][1,2,4]triazin-7-yl]-N-[(3R,4S)-4-fluoro-1-(4-methylbenzenesulfonyl)pyrrolidin-3-yl]-2-methoxypyridine-3-carboxamide], the IC50 was 0.221 µM. Work on `COc1ncc(-c2cc(C(F)(F)F)c3c(N)ncnn23)cc1C(=O)N[C@@H]1CN(S(=O)(=O)C2CCOC2)C[C@@H]1F` (stereo partly drawn) [Example 1479, 5-[4-amino-5-(trifluoromethyl)pyrrolo[2,1-f][1,2,4]triazin-7-yl]-N-[(3R,4S)-4-fluoro-1-(oxolane-3-sulfonyl)pyrrolidin-3-yl]-2-methoxypyridine-3-carboxamide] yielded an IC50 of 0.031 µM. For `CC(C)C(=O)N1C[C@H](F)[C@H](NC(=O)c2cc(F)cc(-c3cc(C(F)(F)F)c4c(N)ncnn34)c2)C1` [Example 600, 3-[4-amino-5-(trifluoromethyl)pyrrolo[2,1-f][1,2,4]triazin-7-yl]-5-fluoro-N-[(3R,4S)-4-fluoro-1-(2-methylpropanoyl)pyrrolidin-3-yl]benzamide], the IC50 was 0.072 µM.
